Experimental findings from ChEMBL document CHEMBL5606460, “ASAP - DENV-2 NS2B-NS3 protease fluorescence single point” (2024) are described below.

The structures appear in SMILES notation. The whole screen tested about 2,000 compounds, of which about 110 (5.5%) showed an effect of 50% or more. Some of the results follow.

This assay concerns the target Genome polyprotein (dengue virus type 2) (UniProt P29990).
The mark [1] stands for this setting: Thailand/16681/1984, Concentration 25.0 uM, Number of replicates 1.0.

As to `Cc1ccc(C)n1CCN1CCN(C(=O)C2CCN(c3ccc(C=O)cc3)CC2)CC1`, the inhibition under setting [1] amounted to 3.33%.
On the same count and under the same terms, the same measure for `CN(Cc1ccc(N2CCOCC2)cc1)C(=O)C1CCN(c2ccc(C=O)cc2)CC1`: 13.2%; for `CCS(=O)(=O)CCN(C)C(=O)C1CCN(c2ccc(C=O)cc2)CC1`: 14.2%.
Consider `Cc1nn(Cc2ccc3[nH]cnc3c2)cc1C1CCNCC1`, for which the inhibition (Thailand/16681/1984, Concentration 49.5 uM, Number of replicates 2.0, Standard deviation 2.2677819065404545 %) was -0.121%; the inhibition (Thailand/16681/1984, Concentration 99.01 uM, Number of replicates 2.0, Standard deviation 1.8619846733790775 %) came to 1.01%; the inhibition (Thailand/16681/1984, Concentration 198.0 uM, Number of replicates 2.0, Standard deviation 1.6361949864806369 %) was 1.87%.
Turning to `Cc1ccc(CNC(=O)C2CCN(C(=O)C3CCN(c4ccc(C=O)cc4)CC3)CC2)cc1`, the inhibition under setting [1] turned out to be 13.7%.
Take `Cc1cc(CO)c2cccc(Cc3cccc(NC(=O)c4cc(C(=O)O)[nH]n4)c3)c2n1`: the inhibition was 4.13% (Thailand/16681/1984, Concentration 49.95 uM, Number of replicates 2.0, Standard deviation 0.024232414845035546 %) and 7.91% (Thailand/16681/1984, Concentration 99.9 uM, Number of replicates 2.0, Standard deviation 0.7422093740247248 %).
Turning to `O=Cc1ccc(N2CCC(C(=O)N3CCN(c4ncccn4)CC3)CC2)cc1`, under setting [1], the inhibition was found to be 13.4%.
For the compound `CNC(=O)c1cc(Cl)ccc1NS(=O)(=O)c1ccc2[nH]cnc2c1`, the inhibition is -7.17% (Thailand/16681/1984, Concentration 49.5 uM, Number of replicates 2.0, Standard deviation 1.319101949450319 %) and -9.33% (Thailand/16681/1984, Concentration 99.01 uM, Number of replicates 2.0, Standard deviation 1.2211230021296493 %).
On to `O=C(c1nc2ccccc2[nH]1)N1CC[C@H](n2cc3ccccc3n2)C1`, for which the inhibition (Thailand/16681/1984, Concentration 49.5 uM, Number of replicates 2.0, Standard deviation 1.0025848069580536 %) is 1.32%; the inhibition (Thailand/16681/1984, Concentration 99.01 uM, Number of replicates 2.0, Standard deviation 0.026013034900923795 %) turned out to be 2.88%; the inhibition (Thailand/16681/1984, Concentration 198.0 uM, Number of replicates 2.0, Standard deviation 0.26283988560630633 %) was determined as 8.61%.
For `O=Cc1ccc(N2CCC(C(=O)NCc3cc(F)ccc3Br)CC2)cc1`, under setting [1], the inhibition is 2.51%.
As for `CC(=O)N[C@@H](CCCN)C(=O)Nc1cccc(Cc2cccc3c(CO)cc(C)nc23)c1`, the inhibition is -0.745% (Thailand/16681/1984, Concentration 49.95 uM, Number of replicates 2.0, Standard deviation 0.3697200155248097 %) and 10.8% (Thailand/16681/1984, Concentration 99.9 uM, Number of replicates 2.0, Standard deviation 1.751669554233512 %).
For the compound `Cc1cc(CO)c2cccc(CC(=O)NCc3ccc(S(N)(=O)=O)cc3)c2n1`, the inhibition is, setting by setting: (Thailand/16681/1984, Concentration 49.95 uM, Number of replicates 2.0, Standard deviation 1.717051818740604 %) 21.3%; (Thailand/16681/1984, Concentration 99.9 uM, Number of replicates 2.0, Standard deviation 5.294472274247832 %) 43.7%.
On to `O=Cc1ccc(N2CCC(C(=O)N(Cc3ccccc3)Cc3ccc(Br)cc3)CC2)cc1`, for which the inhibition under setting [1] was -1.05%.
On the same count and under the same terms, next, `O=Cc1ccc(N2CCC(C(=O)NC[C@H]3CCCN(C4CCCC4)C3)CC2)cc1`: 12%; `Cc1cccc(N2CCN(C(=O)C3CCN(c4ccc(C=O)cc4)CC3)C[C@@H]2C)c1`: 13.4%.
Consider `Cc1cc(OCC(N)=O)c2cccc(C)c2n1`, for which the inhibition runs as follows: (Thailand/16681/1984, Concentration 49.95 uM, Number of replicates 2.0, Standard deviation 5.13228985247876 %) -8.4%; (Thailand/16681/1984, Concentration 99.9 uM, Number of replicates 2.0, Standard deviation 3.138272547559726 %) -9.88%.
Regarding `COc1c(C)cnc(CN(C)C(=O)C2CCN(c3ccc(C=O)cc3)CC2)c1C`, the inhibition under setting [1] is 14.2%.
As to `CC[C@]1(c2ccc(NC(=O)C3CCN(c4ccc(C=O)cc4)CC3)cc2)CCC(=O)NC1=O`, the inhibition under setting [1] worked out at 14.1%.
`O=C(Nc1ccc(Cl)c2cccnc12)c1ccccc1Cl`: the inhibition is, setting by setting: (Thailand/16681/1984, Concentration 49.95 uM, Number of replicates 2.0, Standard deviation 4.586896145756268 %) -8.93%; (Thailand/16681/1984, Concentration 99.9 uM, Number of replicates 2.0, Standard deviation 5.569920136705082 %) -8.91%.
In the case of `Cc1nc([C@H]2CCN(C(=O)c3n[nH]cc3[C@H]3CCCNC3)C2)n[nH]1`, the inhibition is, setting by setting: (Thailand/16681/1984, Concentration 49.5 uM, Number of replicates 2.0, Standard deviation 1.1890927459605223 %) -3.25%; (Thailand/16681/1984, Concentration 99.01 uM, Number of replicates 2.0, Standard deviation 0.25960688515073266 %) -2.2%; (Thailand/16681/1984, Concentration 198.0 uM, Number of replicates 2.0, Standard deviation 5.490687180371391 %) 2.11%.
For the compound `CC(C)(O)CC(=O)Nc1cc(Cl)cc(C(=O)NC(C)(C)CO)c1`, the inhibition by setting is: (Thailand/16681/1984, Concentration 49.5 uM, Number of replicates 2.0, Standard deviation 2.1574883244344782 %) 0.623%; (Thailand/16681/1984, Concentration 99.01 uM, Number of replicates 2.0, Standard deviation 2.49929441897025 %) 1.02%; (Thailand/16681/1984, Concentration 198.0 uM, Number of replicates 2.0, Standard deviation 1.6486810114254136 %) 0.898%.
With `O=Cc1ccc(N2CCC(C(=O)NCC(=O)Nc3ccc(F)c(F)c3)CC2)cc1`, under setting [1], the inhibition was found to be 14.1%.
Turning to `O=Cc1ccc(N2CCC(C(=O)Nc3cc(Br)ccc3F)CC2)cc1`, under setting [1], the inhibition came to 12.3%.
On the same count and under the same terms, the same measure for `O=Cc1ccc(N2CCC(C(=O)NCC3(c4ccccc4)CCCC3)CC2)cc1`: 0.504%.
For `Cc1nc(-c2ccc(C)c3ncccc23)c[nH]1`, the inhibition was -7.66% (Thailand/16681/1984, Concentration 49.95 uM, Number of replicates 2.0, Standard deviation 5.0327534948119155 %) and -5.4% (Thailand/16681/1984, Concentration 99.9 uM, Number of replicates 2.0, Standard deviation 5.690844839879446 %).
As for `O=Cc1ccc(N2CCC(C(=O)N[C@@H]3[C@@H](O)[C@H](O)[C@@H](CO)O[C@H]3O)CC2)cc1`, the inhibition under setting [1] came out at 10.8%.

The term inhibition denotes the change of the read-out against control, counted positive when it falls.
